The RNAGym collection of RNA variant scans (doi:10.1073/pnas.2313332121)
Variants at the background level are over-represented here.

B1: TPR 5TU (parent)
chain: GGAUCUUCUCGAUCUAACAAAAAAGACAAAUCUGCCACAAAGCUUGAGAGCAUCUUCGGAUGCAGAGGCGGCAGCCUUCGGUGGCGCGAUAGCGCCAACGUUCUCAACUAUGACACGCAAAACGCGUGCUCCGUUGAAUGGAGUUUAUCAUG

Variants of: B1
Test: polymerase ribozyme fitness, log enrichment relative to wild type (log ratio); higher = more active; in vitro selection for triplet polymerase activity
In short: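 Mutant libraries of each subunit of a heterodimeric triplet polymerase ribozyme were built by PCR and transcribed. Each library went through one round of in vitro selection in triplicate: annealing with biotinylated primer, partner subunit and triplets, frozen incubation at −7 °C, gel excision of extended constructs, streptavidin-bead capture and RT-PCR. Input and output libraries were Illumina-sequenced; only genotypes with ≥10 input reads and ≥1 read per output were kept. Fitness is log2(genotype enrichment/wild-type enrichment), using inverse-variance-weighted replicate averages.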

| Variant | polymerase ribozyme fitness (log ratio) |
| --- | --- |
| A17U A64G A66C G84U C116U | ≤ -4.2 |
| A17U A73U C93U A120G | -1.86 |
| A17U A97G A107G | ≤ -4.2 |
| A17U A98G | -0.0344 |
| A17U C18A C54U U55G C75U C95A | -1.89 |
| A17U C18A G46C A47G G86C A89U A150G | ≤ -4.2 |
| A17U C18G G42U U45G C105G C116A | ≤ -4.2 |
| A17U C18G G50C C51U C57A G59U A66C G152U | ≤ -4.2 |
| A17U C27G C43G C54U C63U A121G | ≤ -4.2 |
| A17U C27G G58C C96A C116U | ≤ -4.2 |
| A17U C27G U61C G133U A142C | ≤ -4.2 |
| A17U C32G C57A U139A | ≤ -4.2 |
| A17U C32G G50U G59A C114A | ≤ -4.2 |
| A17U C35A C76A U82G C96A C125A U145A | ≤ -4.2 |
| A17U C35U G86U U90C A106G C116A | ≤ -4.2 |
| A17U C36A C54U G74C A120U U144A | ≤ -4.2 |
| A17U C38G A91C A106U G136C | ≤ -4.2 |
| A17U C51U A52G C57U G84C G117C A137C A150G G152U | ≤ -4.2 |
| A17U C51U C79U G88U C116G A119G A142G G143A | ≤ -4.2 |
| A17U C54G C96U | -2.08 |
| A17U C54U G59C A66G C87A C129G | ≤ -4.2 |

| Variant | polymerase ribozyme fitness (log ratio) |
| --- | --- |
| A17U C57U A73U G81U C85G C95G A106U A115C G136A | ≤ -4.2 |
| A17U C63U C79A U101G U146A | ≤ -4.2 |
| A17U C79G C87U U144G | ≤ -4.2 |
| A17U C85A C108U A142U | ≤ -4.2 |
| A17U C85G C116G C118A G143U | ≤ -4.2 |
| A17U C85U U104G | -1.01 |
| A17U C87A | ≤ -4.2 |
| A17U C87G | -3.75 |
| A17U C87U G94C | -3.01 |
| A17U C93G | ≤ -4.2 |
| A17U C93U C114A C116G | ≤ -4.2 |
| A17U C114U | -1.91 |
| A17U C129G | -2.62 |
| A17U G25C C38U A49C G70A C96U U145A | ≤ -4.2 |
| A17U G25U U33G C69U A89C C96U U148G | ≤ -4.2 |
| A17U G46U A73G U77C G94C | ≤ -4.2 |
| A17U G46U G74C C85A C118U C125G | ≤ -4.2 |
| A17U G50A A73U G83C G124U | ≤ -4.2 |
| A17U G50U A91U C118U G136A | ≤ -4.2 |
| A17U G58C A91C C96G U148C | ≤ -4.2 |
| A17U G58C G65A A73C G84U U90C C108G | ≤ -4.2 |

| Variant | polymerase ribozyme fitness (log ratio) |
| --- | --- |
| A17U G58U G74C G86A | ≤ -4.2 |
| A17U G68U | ≤ -4.2 |
| A17U G81U U90G A91G G128A | ≤ -4.2 |
| A17U G83A G86U A142C | ≤ -4.2 |
| A17U G83C U102G C105A | ≤ -4.2 |
| A17U G84A C96G A98G A107C U148C | ≤ -4.2 |
| A17U G86U A115U C116U A122U U134C G140C | ≤ -4.2 |
| A17U G88C C95G C103A | ≤ -4.2 |
| A17U G92U U101G U127G U148A | -4.01 |
| A17U G94A | -1.24 |
| A17U G124U | -0.693 |
| A17U U31C G34C A37C U45A C51U C87G C114G U135G | ≤ -4.2 |
| A17U U31G U44G G50A C75A A91G A97G C99A A106U U144G | ≤ -4.2 |
| A17U U44A G50A C87U A98G A142G | ≤ -4.2 |
| A17U U45A A47G G50A C51A A64U | ≤ -4.2 |
| A17U U45G A52G C96A C108A A113U C131A U139A G140A | ≤ -4.2 |
| A17U U53C G92A C129G | ≤ -4.2 |
| A17U U53G C57G G88A C93G U134G U135G G140U | ≤ -4.2 |
| A17U U55A | -1.08 |
| A17U U56A G68A U145G | ≤ -4.2 |
| A17U U56A G133U U148C | ≤ -4.2 |

| Variant | polymerase ribozyme fitness (log ratio) |
| --- | --- |
| A17U U56A U82G C93A G128A | ≤ -4.2 |
| A17U U61A C87G A115G | ≤ -4.2 |
| A17U U61G A91C C95A | ≤ -4.2 |
| A17U U77C C93U G100U A120U | ≤ -4.2 |
| A17U U144A U151A | ≤ -4.2 |
| A17U U148G | ≤ -4.2 |
| C18A A19C C35A | -2.88 |
| C18A A19C G50U C75U A110U | ≤ -4.2 |
| C18A A20C U82C A122C | -1.71 |
| C18A A20G A22C A49G G68A C85U G141A | ≤ -4.2 |
| C18A A20G G46C U56C G94C C105G A122U | -0.89 |
| C18A A20U C27G A30U U56G A64U G84U U102C G112U G124C | ≤ -4.2 |
| C18A A20U G25U A29U U77G C85U A138G | ≤ -4.2 |
| C18A A20U G71C G92C G143U U144G | ≤ -4.2 |
| C18A A21C A29C A91G C99A C125U G143C A150C | ≤ -4.2 |
| C18A A21C C35U A37G U55G A60G U61A G92U U101G C116G C125U | ≤ -4.2 |
| C18A A21G U33G C36A G84A G141C U144A C149U | ≤ -4.2 |
| C18A A22C A23U A37C C72U G88A C125U U146G | ≤ -4.2 |
| C18A A22G G81U C87G C108G A120G | ≤ -4.2 |
| C18A A22U G50A C85U U109G | ≤ -4.2 |
| C18A A23C C57U A73G C95A G136U G140U G143C | ≤ -4.2 |
